# The supplement of paper PMC8728848
# The list shows a part of the results.
# B1: IRP60A (Homo sapiens), Q9UGN4 (protein)
# chain: MWLPWALLLLWVPGCFALSKCRTVAGPVGGSLSVQCPYEKEHRTLNKYWCRPPQIFLCDKIVETKGSAGKRNGRVSIRDSPANLSFTVTLENLTEEDAGTYWCGVDTPWLRDFHDPVVEVEVSVFPASTSMTPASITAAKTSTITTAFPPVSSTTLFAVGATHSASIQEETEEVVNSQLPLLLSLLALLLLLLVGASLLAWRMFQKWIKAGDHSELSQNPKQAATQSELHYANLELLMWPLQEKPAPPREVEVEYSTVASPREELHYASVVFDSNTNRIAAQRPREEEPDSDYSVIRKT
# Experiments:
# Experiment in all cases: glycan array binding signal (z-score within array); higher = stronger binding
# Details in all cases: glycan notation: IUPAC condensed, linker removed
# GalNAc(b1-3)GalNAc = target: GalNAc(b1-3)GalNAc
# Method in brief: (§1)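 Glycan array data came from 3228 arrays in the Consortium for Functional Glycomics database, and only arrays with an available protein sequence were kept. Glycan names were put into IUPAC-condensed notation, and columns mapping to the same glycan were averaged. The binding signal is a within-array Z-score, averaged across arrays of one protein sequence run at different concentrations or buffers and across linkers. A negative Z-score can be read as non-binding.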
# GalNAc(b1-4)GlcNAc = target: GalNAc(b1-4)GlcNAc
# Method in brief: as §1
# Glc(a1-4)Glc = target: Glc(a1-4)Glc
# Method in brief: as §1
# Glc(b1-4)Glc = target: Glc(b1-4)Glc
# Method in brief: as §1
# Glc(b1-6)Glc = target: Glc(b1-6)Glc
# Method in brief: as §1
# [1] = target: GlcNAc(b1-2)Gal(b1-3)GalNAc
# Method in brief: as §1
# GlcNAc(b1-3)Gal = target: GlcNAc(b1-3)Gal
# Method in brief: as §1
# [2] = target: GlcNAc(b1-3)Gal(b1-3)GalNAc
# Method in brief: as §1
# GlcNAc(b1-3)Gal(b1-4)Glc = target: GlcNAc(b1-3)Gal(b1-4)Glc
# Method in brief: as §1
# [3] = target: GlcNAc(b1-3)Gal(b1-4)GlcNAc
# Method in brief: as §1
# [4] = target: GlcNAc(b1-3)[GlcNAc(b1-6)]GalNAc
# Method in brief: as §1
# [5] = target: GlcNAc(b1-3)[GlcNAc(b1-6)]GlcNAc(b1-4)GlcNAc
# Method in brief: as §1
# [6] = target: GlcNAc(b1-4)GlcNAc(b1-4)GlcNAc
# Method in brief: as §1
# [7] = target: GlcNAc(b1-4)[GlcNAc(b1-6)]GalNAc
# Method in brief: as §1
# GlcNAc(b1-6)GalNAc = target: GlcNAc(b1-6)GalNAc
# Method in brief: as §1
# Kdn(a2-3)Gal(b1-3)GlcNAc = target: Kdn(a2-3)Gal(b1-3)GlcNAc
# Method in brief: as §1
# Kdn(a2-3)Gal(b1-4)GlcNAc = target: Kdn(a2-3)Gal(b1-4)GlcNAc
# Method in brief: as §1
# [8] = target: Man(a1-2)Man(a1-2)Man(a1-3)Man
# Method in brief: as §1
# [9] = target: Man(a1-2)Man(a1-2)Man(a1-6)[Man(a1-3)]Man
# Method in brief: as §1
# Man(a1-2)Man(a1-3)Man = target: Man(a1-2)Man(a1-3)Man
# Method in brief: as §1
# [10] = target: Man(a1-2)Man(a1-3)[Man(a1-2)Man(a1-6)]Man
# Method in brief: as §1
# [11] = target: Man(a1-2)Man(a1-3)[Man(a1-2)Man(a1-6)]Man(a1-6)[Man(a1-2)Man(a1-2)Man(a1-3)]Man(b1-4)GlcNAc(b1-4)GlcNAc
# Method in brief: as §1
# [12] = target: Man(a1-2)Man(a1-3)[Man(a1-2)Man(a1-6)]Man(a1-6)[Man(a1-3)[Man(a1-6)]Man(a1-6)]Man(b1-4)GlcNAc(b1-4)GlcNAc
# Method in brief: as §1
# [13] = target: Man(a1-2)Man(a1-3)[Man(a1-6)]Man(a1-6)[Man(a1-2)Man(a1-3)]Man(b1-4)GlcNAc(b1-4)GlcNAc
# Method in brief: as §1
# [14] = target: Man(a1-2)Man(a1-6)[Man(a1-3)]Man(a1-6)[Man(a1-2)Man(a1-2)Man(a1-3)]Man(b1-4)GlcNAc(b1-4)GlcNAc
# Method in brief: as §1
# Man(a1-3)[Man(a1-6)]Man = target: Man(a1-3)[Man(a1-6)]Man
# Method in brief: as §1
# [15] = target: Man(a1-3)[Man(a1-6)]Man(a1-6)[Man(a1-3)]Man(b1-4)GlcNAc(b1-4)GlcNAc
# Method in brief: as §1
# Neu5Ac(a2-3)Gal = target: Neu5Ac(a2-3)Gal
# Method in brief: as §1
# [16] = target: Neu5Ac(a2-3)Gal(b1-3)GalNAc
# Method in brief: as §1
# [17] = target: Neu5Ac(a2-3)Gal(b1-3)GalNAc6S
# Method in brief: as §1
# [18] = target: Neu5Ac(a2-3)Gal(b1-3)GlcNAc
# Method in brief: as §1
# [19] = target: Neu5Ac(a2-3)Gal(b1-3)[Fuc(a1-4)]GlcNAc
# Method in brief: as §1
# [20] = target: Neu5Ac(a2-3)Gal(b1-3)[Neu5Ac(a2-3)Gal(b1-4)]GlcNAc
# Method in brief: as §1
# [21] = target: Neu5Ac(a2-3)Gal(b1-3)[Neu5Ac(a2-6)]GalNAc
# Method in brief: as §1
# Neu5Ac(a2-3)Gal(b1-4)Glc = target: Neu5Ac(a2-3)Gal(b1-4)Glc
# Method in brief: as §1
# [22] = target: Neu5Ac(a2-3)Gal(b1-4)GlcNAc
# Method in brief: as §1
binder,measurement,setting,value
B1,glycan array binding signal (z-score),GalNAc(b1-3)GalNAc,0.467
same,glycan array binding signal (z-score),GalNAc(b1-4)GlcNAc,0.319
same,glycan array binding signal (z-score),Glc(a1-4)Glc,-0.316
same,glycan array binding signal (z-score),Glc(b1-4)Glc,-0.35
same,glycan array binding signal (z-score),Glc(b1-6)Glc,-0.124
same,glycan array binding signal (z-score),[1],-0.288
same,glycan array binding signal (z-score),GlcNAc(b1-3)Gal,-0.069
same,glycan array binding signal (z-score),[2],-0.209
same,glycan array binding signal (z-score),GlcNAc(b1-3)Gal(b1-4)Glc,-0.264
same,glycan array binding signal (z-score),[3],-0.227
same,glycan array binding signal (z-score),[4],0.066
same,glycan array binding signal (z-score),[5],-0.369
same,glycan array binding signal (z-score),[6],-0.398
same,glycan array binding signal (z-score),[7],-0.193
same,glycan array binding signal (z-score),GlcNAc(b1-6)GalNAc,0.154
same,glycan array binding signal (z-score),Kdn(a2-3)Gal(b1-3)GlcNAc,-0.249
same,glycan array binding signal (z-score),Kdn(a2-3)Gal(b1-4)GlcNAc,-0.156
same,glycan array binding signal (z-score),[8],-0.241
same,glycan array binding signal (z-score),[9],-0.415
same,glycan array binding signal (z-score),Man(a1-2)Man(a1-3)Man,-0.421
same,glycan array binding signal (z-score),[10],-0.431
same,glycan array binding signal (z-score),[11],-0.267
same,glycan array binding signal (z-score),[12],-0.396
same,glycan array binding signal (z-score),[13],-0.327
same,glycan array binding signal (z-score),[14],-0.395
same,glycan array binding signal (z-score),Man(a1-3)[Man(a1-6)]Man,8.07
same,glycan array binding signal (z-score),[15],-0.418
same,glycan array binding signal (z-score),Neu5Ac(a2-3)Gal,-0.412
same,glycan array binding signal (z-score),[16],-0.336
same,glycan array binding signal (z-score),[17],-0.304
same,glycan array binding signal (z-score),[18],-0.223
same,glycan array binding signal (z-score),[19],-0.437
same,glycan array binding signal (z-score),[20],-0.378
same,glycan array binding signal (z-score),[21],-0.405
same,glycan array binding signal (z-score),Neu5Ac(a2-3)Gal(b1-4)Glc,-0.178
same,glycan array binding signal (z-score),[22],-0.225
